Results published in PMC12040169 (PLOS Biology, 2025).
The list shows a part of the results.

Test system: T1, C. trachomatis L2/434/Bu expressing GFP (CTL2-GFP)
T1 construct: L2/434/Bu GFP intracellular growth in HeLa cells
Design: species or system HeLa; C. trachomatis total inclusion area by high-content imaging, normalised to DMSO
Settings: total inclusion area; 28.5 h, 10 µM; inhibitor
Method in brief: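 High-content images of fixed, Hoechst-stained infected cultures supply inclusion area and count (growth) plus nuclei number (viability), complementing bulk GFP/resorufin fluorescence. MIC determination is unchanged from the primary assay.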

Row | Structure (SMILES) | % of control remaining
1 | COCCCN(Cc1ccccn1)Cc1ccc(F)cc1F [CBK282974] | 106.686
2 | CC1(C)Cc2nc3[nH]nc(N)c3cc2CO1 [CBK261476] | 92.5887
3 | Fc1ccc(CCN2CCCCC2c2cc3ccccc3[nH]2)cc1 (stereo not drawn) [CBK107227T] | 38.6838
4 | COc1ncc(-c2cncc(NCc3cccc(Cl)c3)n2)c(OC)n1 [CBK065211] | 152.911
5 | CCN(CC)S(=O)(=O)c1ccc2c(c1)CCCN2C(=O)c1ccc(C#N)cc1 [CBK295161] | 107.802
6 | O=C(NCC1CCCO1)C1(Cc2ccc(-c3ccc(F)c(F)c3)cc2)CCOCC1 (stereo not drawn) [CBK285534] | 107.475
7 | O=c1ccnc(SCc2cccc(Cl)c2)[nH]1 [CBK288123] | 0.06112
8 | COc1ccc(CCC(=O)N2CCCCC2c2ncc(-c3cccc(F)c3)[nH]2)cc1OC (stereo not drawn) [CBK291148] | 101.614
9 | Cc1ccc(-c2cn(S(=O)(=O)c3cccc4nsnc34)nc2N)cc1 [CBK268871] | 85.542
10 | Cn1cc(-c2nc(C(=O)N3CCN(c4ncccn4)CC3)cs2)cn1 [CBK305626] | 59.545
11 | CCOC(=O)C(C)n1nc(C)n2c(cc3sc(C)cc32)c1=O (stereo not drawn) [CBK284066] | 92.9552
12 | O=C(NCc1cccs1)N1CCCN(Cc2ccc(F)cc2)CC1 [CBK306294] | 59.6128
13 | CN(C)S(=O)(=O)N(CC(=O)N1CCN(Cc2ccccc2)CC1)c1ccccc1 [CBK268423] | 92.1853
14 | COCCn1cc(C(=O)N2CCOC3CCCC32)c2ccccc21 (stereo not drawn) [CBK305156] | 49.6795
15 | Cc1ccc(Cn2cnc3c(nnn3-c3ccc(C)cc3)c2=O)cc1 [CBK287502] | 104.96
16 | O=C(O)c1ccc(S(=O)(=O)Nc2ccc(OC3CCCC3)cc2)cc1 [CBK296658] | 85.2596
17 | CN(C)S(=O)(=O)Nc1ccc(Cc2ccncc2)cc1 [CBK265011] | 115.817
18 | Cn1c(=O)n(C)c2cc(NC(=O)CSc3nc(Nc4ccccc4)nc(N4CCOCC4)n3)ccc21 [CBK269041] | 69.5362
19 | COc1cc(NC(=O)N(C)C2CCN(C)C2)cc(OC)c1OC (stereo not drawn) [CBK156022] | 107.149
20 | O=C1NC/C=C/CC2(CCN(c3ncccn3)CC2)C(=O)NCCOc2ccccc21 [CBK292081] | 90.6267
21 | O=C1c2ccccc2C(Nc2cccnc2)N1c1ccccn1 (stereo not drawn) [CBK113239] | 85.8867
22 | Cc1nc2c(c(=O)[nH]1)CCN(CCC(C)c1ccccc1)C2 (stereo not drawn) [CBK282387] | 119.396
23 | O=C(COc1ccc(S(=O)(=O)N2CCCCC2)cc1)N1CCC(Cc2ccccc2)CC1 [CBK268547] | 115.46
24 | Cc1cc2c(cc1Cl)C(=O)CC1(CCN(C(=O)C3CC(=O)OC3(C)C)CC1)O2 (stereo not drawn) [CBK156514] | 76.0351
25 | FC(F)(F)c1nc2ccccc2nc1OCCc1c[nH]c2ccccc12 [CBK115843] | 70.0826
26 | COCCN1CCn2c(nc3cc(NC(=O)C4CCCCC4)ccc32)C1 [CBK307411] | 66.5093

Row | Structure (SMILES) | % of control remaining
27 | CN(C)Cc1cc(CN(C)C)c(O)c(CCc2ccccc2)n1 [CBK278316C] | 96.7927
28 | COCCNC(=O)c1c(NC(=O)c2ccccc2C)sc2c1CCCC2 [CBK091645] | 75.114
29 | CN(C)CCn1c(=O)[nH]c2ncc(-c3ccoc3)nc21 [CBK064294] | 109.624
30 | C=CCNC(=O)c1cnc(-c2ccc(Cl)cc2)c(-c2ccco2)c1 [CBK036738] | 115.931
31 | Cc1ccccc1-c1cnc(NS(C)(=O)=O)c(C(=O)N(C)C)c1 [CBK106430] | 95.3848
32 | CC1=NN(c2ccccc2)C(=O)/C1=C\c1ccc(Cl)cc1 [CBK067772] | 88.4306
33 | COc1cc(C2C3=C(CC(C)(C)CC3=O)Nc3ncnn32)ccc1OCC(=O)N1CCOCC1 (stereo not drawn) [CBK268551] | 97.9519
34 | O=C(O)c1c[nH]nc1-c1cccc(Br)c1 [CBK286963] | 128.014
35 | c1ccc(N2CCN(c3cccc(-c4cc5ccccc5o4)n3)CC2)nc1 [CBK036875] | 126.69
36 | COc1ccc(-c2nnc(SC(C)C(=O)Nc3cc(C)no3)n2CC2CCCO2)cc1 (stereo not drawn) [CBK297879] | 61.3559
37 | O=C(O)CSc1nnc(-c2sc3ccccc3c2Cl)n1-c1ccccc1 [CBK263830] | 101.485
38 | O=C(O)c1ccc(NC(CC(=O)c2ccccc2)c2ccc(Br)cc2)cc1 (stereo not drawn) [CBK266195C] | 91.1889
39 | CCNC(Cc1ccc2ccccc2c1)C(=O)OC (stereo not drawn) [CBK071702] | 97.7962
40 | Cc1cc(C)n(CC(=O)N2CCCC(c3cc4cccnc4[nH]3)C2)n1 (stereo not drawn) [CBK284928] | 97.6956
41 | Nc1nc(NCCc2ccccc2)nc(-c2cc(Cl)ccc2O)n1 [CBK074551] | 96.3384
42 | COc1ccc([C@@]23CC[C@@H](NC(=O)N(C)c4ccc(C)cc4)C[C@@H]2N(C)CC3)cc1OC [CBK045681T] | 32.7842
43 | C/C(=N\Nc1cc(-c2ccccc2)nc(C)n1)c1ccc(O)cc1 [CBK261710] | 109.654
44 | O=C(O)/C=C\C(=O)N(C1CCCCC1)C1CCCCC1 [CBK286562] | 62.4855
45 | N#Cc1ccc2nc([C@H]3CCN(C(=O)C4CCCCC4)C3)[nH]c2c1 [CBK289380] | 106.286
46 | CN1CCC(N2CCC[C@H]2c2nc(-c3ccnc(N4CCOCC4)c3)no2)CC1 [CBK288880] | 114.149
47 | COCC1CN(S(=O)(=O)c2cnc3ccsc3c2)C1 [CBK304768] | 80.029
48 | CNC(=O)c1ccc(-c2ccco2)nc1N1CCOCC1 [CBK106212] | 54.9045
49 | Cc1ccc(S(=O)(=O)N2C[C@H](O)C[C@H]2C(=O)O)cc1 [CBK289276] | 109.745
50 | N#CCCCN1CCC(Oc2nccnc2OCc2c(F)cccc2Cl)CC1 [CBK153630] | 100.571
51 | Cn1cc(CC(=O)NCc2ccc(OC3CCNCC3)cc2)c2ccccc21 [CBK028430T] | 96.7938
